# Assay results from the supplement of paper PMC10037445.
# Values joined by “and” are separate entries in the source; they are usually repeats but may differ in a detail not shown here. Identical values can stand only once. Whole data set: some 2,900 compounds, median “NF-kB SEAP reporter activity, fold change vs agonist alone” near 0.99, cut for the highest 2% near 2.6. The list shows a part of the results.
# Assays:
# RAW-Dual [1] = experiment: NF-kB SEAP reporter activity, fold change vs agonist alone; cytotoxicity flag (confluency mask): not cytotoxic; higher = enhanced NF-kB activity
# How it was run: (§1)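 Reporter activity is given as fold change relative to agonist-alone wells. To measure it, 50 nL of library stock was pin-tooled onto RAW-Dual macrophages (50,000 cells/well, DMEM, 384-well plates), a PRR agonist followed 1 h later, and cells stayed at 37 °C, 5% CO2. Twenty hours on, supernatant was assayed for IRF (QuantiLuc luminescence) and NF-κB (QuantiBlue, 620 nm absorbance), and wells under 70% of agonist-control IncuCyte confluency in both mask sets were marked cytotoxic.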
# RAW-Dual [2] = experiment: NF-kB SEAP reporter activity, fold change vs agonist alone; cytotoxicity flag (confluency mask): cytotoxic (confluency <70% of control); higher = enhanced NF-kB activity
# How it was run: as §1
# RAW-Dual [3] = experiment: NF-kB SEAP reporter activity, fold change vs agonist alone; higher = enhanced NF-kB activity; details: library stock concentration (final ~1000-fold dilution): 10 mM
# How it was run: as §1
# [4] = agonist: ODN 1826 (TLR9) 0.5 ug/mL
# [5] = agonist: Pam2CSK4 (TLR2/6) 0.1 ug/mL
# [6] = agonist: Pam3CSK4 (TLR2/1) 0.1 ug/mL
# [7] = cytotoxicity flag (confluency mask): not cytotoxic, agonist: Imiquimod (TLR7) […]
# [8] = cytotoxicity flag (confluency mask): not cytotoxic, agonist: MPLA (TLR4) […]
# [9] = cytotoxicity flag (confluency mask): cytotoxic (confluency <70% of control), agonist: MPLA (TLR4) […]
# [10] = cytotoxicity flag (confluency mask): cytotoxic (confluency <70% of control), agonist: Imiquimod (TLR7) […]
smiles,measurement,setting,value
Cc1ccc2nc(NCCN)c3ncc(C)n3c2c1 (library stock concentration (final ~1000-fold dilution): 10 mM),NF-kB SEAP reporter activity,RAW-Dual [1]; agonist: LPS (TLR4) 0.1 ug/mL,1.13
same,NF-kB SEAP reporter activity,RAW-Dual [1]; [4],0.745
same,NF-kB SEAP reporter activity,RAW-Dual [1]; [5],0.544
same,NF-kB SEAP reporter activity,RAW-Dual [1]; [6],0.572
same,NF-kB SEAP reporter activity,RAW-Dual [2]; agonist: LPS (TLR4) 0.1 ug/mL,0.336 and 0.342
same,NF-kB SEAP reporter activity,RAW-Dual [2]; [4],0.189 and 0.336
same,NF-kB SEAP reporter activity,RAW-Dual [2]; [5],0.0751 and 0.168
same,NF-kB SEAP reporter activity,RAW-Dual [2]; [6],0.167 and 0.278
Cc1ccc2nc(NCCN)c3ncc(C)n3c2c1,NF-kB SEAP reporter activity,RAW-Dual [3]; [7],1.17
same,NF-kB SEAP reporter activity,RAW-Dual [3]; [8],1.7
COc1ccc(CN(CCN(C)C)c2ncccn2)cc1,NF-kB SEAP reporter activity,RAW-Dual [3]; [7],1.05
same,NF-kB SEAP reporter activity,RAW-Dual [3]; [8],1.13
COc1ccc(CN(CCN(C)C)c2ncccn2)cc1 (library stock concentration (final ~1000-fold dilution): 10 mM),NF-kB SEAP reporter activity,RAW-Dual [1]; agonist: LPS (TLR4) 0.1 ug/mL,1.16
same,NF-kB SEAP reporter activity,RAW-Dual [1]; [4],0.886
same,NF-kB SEAP reporter activity,RAW-Dual [1]; [5],0.965
same,NF-kB SEAP reporter activity,RAW-Dual [1]; [6],0.747
Cc1ccc(Sc2ccccc2N2CCNCC2)c(C)c1 (library stock concentration (final ~1000-fold dilution): 10 mM),NF-kB SEAP reporter activity,RAW-Dual [2]; agonist: LPS (TLR4) 0.1 ug/mL,0.339
same,NF-kB SEAP reporter activity,RAW-Dual [2]; [4],0.37
same,NF-kB SEAP reporter activity,RAW-Dual [2]; [5],0.283
same,NF-kB SEAP reporter activity,RAW-Dual [2]; [6],0.36
Cc1ccc(Sc2ccccc2N2CCNCC2)c(C)c1,NF-kB SEAP reporter activity,RAW-Dual [3]; [9],1.38
CN1CCC(CNc2ccc3ncc(-c4cccc(OC(F)(F)F)c4)n3n2)CC1 (library stock concentration (final ~1000-fold dilution): 10 mM),NF-kB SEAP reporter activity,RAW-Dual [1]; agonist: LPS (TLR4) 0.1 ug/mL,1.34
same,NF-kB SEAP reporter activity,RAW-Dual [1]; [4],0.983
same,NF-kB SEAP reporter activity,RAW-Dual [1]; [5],0.674
same,NF-kB SEAP reporter activity,RAW-Dual [1]; [6],0.943
CN1CCC(CNc2ccc3ncc(-c4cccc(OC(F)(F)F)c4)n3n2)CC1,NF-kB SEAP reporter activity,RAW-Dual [3]; [7],0.949
same,NF-kB SEAP reporter activity,RAW-Dual [3]; [8],0.925
CS(=O)(=O)O.Cn1cc(C2=C(c3cn(CCCSC(=N)N)c4ccccc34)C(=O)NC2=O)c2ccccc21 (library stock concentration (final ~1000-fold dilution): 10 mM),NF-kB SEAP reporter activity,RAW-Dual [2]; agonist: LPS (TLR4) 0.1 ug/mL,0.173
same,NF-kB SEAP reporter activity,RAW-Dual [2]; [4],0.185
same,NF-kB SEAP reporter activity,RAW-Dual [2]; [5],0.0599
same,NF-kB SEAP reporter activity,RAW-Dual [2]; [6],0.138
CS(=O)(=O)O.Cn1cc(C2=C(c3cn(CCCSC(=N)N)c4ccccc34)C(=O)NC2=O)c2ccccc21,NF-kB SEAP reporter activity,RAW-Dual [3]; [10],0.13
same,NF-kB SEAP reporter activity,RAW-Dual [3]; [9],0.222
COc1cccc2c1C(=O)c1c(O)c3c(c(O)c1C2=O)CC(O)(C(=O)CO)CC3OC1CC(N)C(OC2CCCCO2)C(C)O1 (stereo unspecified) (library stock concentration (final ~1000-fold dilution): 10 mM),NF-kB SEAP reporter activity,RAW-Dual [1]; agonist: LPS (TLR4) 0.1 ug/mL,0.245
same,NF-kB SEAP reporter activity,RAW-Dual [1]; [4],0.286
same,NF-kB SEAP reporter activity,RAW-Dual [1]; [5],0.135
same,NF-kB SEAP reporter activity,RAW-Dual [1]; [6],0.132
COc1cccc2c1C(=O)c1c(O)c3c(c(O)c1C2=O)CC(O)(C(=O)CO)CC3OC1CC(N)C(OC2CCCCO2)C(C)O1 (stereo unspecified),NF-kB SEAP reporter activity,RAW-Dual [3]; [7],0.23
same,NF-kB SEAP reporter activity,RAW-Dual [3]; [8],0.21
N#C/C(C(=O)c1ccc(Cl)cc1Cl)=C1\NC(=O)c2ccccc2N1 (library stock concentration (final ~1000-fold dilution): 10 mM),NF-kB SEAP reporter activity,RAW-Dual [1]; agonist: LPS (TLR4) 0.1 ug/mL,1.13
same,NF-kB SEAP reporter activity,RAW-Dual [1]; [4],0.982
same,NF-kB SEAP reporter activity,RAW-Dual [1]; [5],0.65
same,NF-kB SEAP reporter activity,RAW-Dual [1]; [6],0.693
N#C/C(C(=O)c1ccc(Cl)cc1Cl)=C1\NC(=O)c2ccccc2N1,NF-kB SEAP reporter activity,RAW-Dual [3]; [7],0.86
same,NF-kB SEAP reporter activity,RAW-Dual [3]; [8],1.11
COCCOc1nc(N)c2[nH]c(=O)n(Cc3ccc(C(=O)O)cc3)c2n1,NF-kB SEAP reporter activity,RAW-Dual [3]; [7],1.8
same,NF-kB SEAP reporter activity,RAW-Dual [3]; [8],2.54
COCCOc1nc(N)c2[nH]c(=O)n(Cc3ccc(C(=O)O)cc3)c2n1 (library stock concentration (final ~1000-fold dilution): 10 mM),NF-kB SEAP reporter activity,RAW-Dual [1]; agonist: LPS (TLR4) 0.1 ug/mL,7.55
same,NF-kB SEAP reporter activity,RAW-Dual [1]; [4],2.13
same,NF-kB SEAP reporter activity,RAW-Dual [1]; [5],1.46
same,NF-kB SEAP reporter activity,RAW-Dual [1]; [6],2.77
CN1CCN(Cc2ccc(NC(=O)Nc3ccc(Oc4cc(NC(=O)C5CC5)ncn4)cc3)cc2C(F)(F)F)CC1 (library stock concentration (final ~1000-fold dilution): 10 mM),NF-kB SEAP reporter activity,RAW-Dual [2]; agonist: LPS (TLR4) 0.1 ug/mL,0.463
same,NF-kB SEAP reporter activity,RAW-Dual [2]; [4],0.172
same,NF-kB SEAP reporter activity,RAW-Dual [2]; [5],0.0828
same,NF-kB SEAP reporter activity,RAW-Dual [2]; [6],0.146
CN1CCN(Cc2ccc(NC(=O)Nc3ccc(Oc4cc(NC(=O)C5CC5)ncn4)cc3)cc2C(F)(F)F)CC1,NF-kB SEAP reporter activity,RAW-Dual [3]; [10],0.136
same,NF-kB SEAP reporter activity,RAW-Dual [3]; [9],0.267
COCC1CC(c2ncc(-c3ccc4c(c3)COc3cc5c(ccc6[nH]c(C7CCC(C)N7C(=O)C(NC(=O)OC)C(C)C)nc65)cc3-4)[nH]2)N(C(=O)C(NC(=O)OC)c2ccccc2)C1 (stereo unspecified) (library stock concentration (final ~1000-fold dilution): 10 mM),NF-kB SEAP reporter activity,RAW-Dual [1]; agonist: LPS (TLR4) 0.1 ug/mL,1.55
same,NF-kB SEAP reporter activity,RAW-Dual [1]; [4],0.986
same,NF-kB SEAP reporter activity,RAW-Dual [1]; [5],0.794
same,NF-kB SEAP reporter activity,RAW-Dual [1]; [6],0.591
COCC1CC(c2ncc(-c3ccc4c(c3)COc3cc5c(ccc6[nH]c(C7CCC(C)N7C(=O)C(NC(=O)OC)C(C)C)nc65)cc3-4)[nH]2)N(C(=O)C(NC(=O)OC)c2ccccc2)C1 (stereo unspecified),NF-kB SEAP reporter activity,RAW-Dual [3]; [7],0.98
same,NF-kB SEAP reporter activity,RAW-Dual [3]; [8],1.06
NC(=O)c1cccc2nc(-c3ccc(C4CCCN4)cc3F)[nH]c12 (stereo unspecified) (library stock concentration (final ~1000-fold dilution): 10 mM),NF-kB SEAP reporter activity,RAW-Dual [1]; agonist: LPS (TLR4) 0.1 ug/mL,0.553
same,NF-kB SEAP reporter activity,RAW-Dual [1]; [4],0.198
same,NF-kB SEAP reporter activity,RAW-Dual [1]; [5],1.03
same,NF-kB SEAP reporter activity,RAW-Dual [1]; [6],1
NC(=O)c1cccc2nc(-c3ccc(C4CCCN4)cc3F)[nH]c12 (stereo unspecified),NF-kB SEAP reporter activity,RAW-Dual [3]; [7],1.14
same,NF-kB SEAP reporter activity,RAW-Dual [3]; [8],0.748
O=C(O)C1OC(Oc2cc3oc(-c4ccccc4)cc(=O)c3c(O)c2O)C(O)C(O)C1O (stereo unspecified) (library stock concentration (final ~1000-fold dilution): 10 mM),NF-kB SEAP reporter activity,RAW-Dual [1]; agonist: LPS (TLR4) 0.1 ug/mL,0.967
same,NF-kB SEAP reporter activity,RAW-Dual [1]; [4],1
same,NF-kB SEAP reporter activity,RAW-Dual [1]; [5],1.14
same,NF-kB SEAP reporter activity,RAW-Dual [1]; [6],0.815
O=C(O)C1OC(Oc2cc3oc(-c4ccccc4)cc(=O)c3c(O)c2O)C(O)C(O)C1O (stereo unspecified),NF-kB SEAP reporter activity,RAW-Dual [3]; [7],0.88
same,NF-kB SEAP reporter activity,RAW-Dual [3]; [8],1.02
O=C(CCCN1CCC(O)(c2ccc(Cl)cc2)CC1)c1ccc(F)cc1,NF-kB SEAP reporter activity,RAW-Dual [3]; [7],1.6
same,NF-kB SEAP reporter activity,RAW-Dual [3]; [8],1.16
O=C(CCCN1CCC(O)(c2ccc(Cl)cc2)CC1)c1ccc(F)cc1 (library stock concentration (final ~1000-fold dilution): 10 mM),NF-kB SEAP reporter activity,RAW-Dual [1]; agonist: LPS (TLR4) 0.1 ug/mL,1.23
same,NF-kB SEAP reporter activity,RAW-Dual [1]; [4],0.422
same,NF-kB SEAP reporter activity,RAW-Dual [1]; [5],0.872
same,NF-kB SEAP reporter activity,RAW-Dual [1]; [6],0.964
